The results in this text go back to a collection of fitness landscapes (doi:10.1038/s41467-024-54723-y).

Whole data set: some 18,000 sequences, median “TetR repression strength (sort-seq, GFP reporter)” near 0.23, cut for the highest 2% near 0.68. The list shows a part of the results.

UniProt P04483, sequence (P04483 whole entry): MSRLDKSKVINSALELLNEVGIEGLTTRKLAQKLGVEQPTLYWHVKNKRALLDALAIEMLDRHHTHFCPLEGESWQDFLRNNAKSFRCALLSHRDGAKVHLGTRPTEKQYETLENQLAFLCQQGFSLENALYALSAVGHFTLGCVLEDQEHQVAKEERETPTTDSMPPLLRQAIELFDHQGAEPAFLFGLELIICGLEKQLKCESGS

In the assay the target is TetR (class B, Tn10) (UniProt P04483). Description: TetR repression strength (sort-seq, GFP reporter) (relative to tetO2 = 1); higher = stronger repression. Particulars: E. coli. The gist of the method:
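Repression strength was calculated by subtracting the read-weighted mean bin from the top bin index plus one and dividing by the unaltered operator's value. The plasmid library was low-copy in E. coli SIG10-MAX, with eight randomized operator positions between a constitutive promoter and sfGFP and constitutive TetR. Cultures grew 5 h at 37 °C in LB containing 50 µg/mL chloramphenicol before 10^6 cells were sorted by FACS into 13 fluorescence bins, each sequenced on Illumina. Three independent transformations were averaged for members having ≥30 reads in all replicates and a CV ≤0.5.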
Consider TCCCATTCAGTTCTGGAGA, for which the TetR repression strength turned out to be 0.331.
In the case of TCCCTCGTAGTTCCTGAGA, the TetR repression strength was 0.33.
In the case of TCCCCAGGAGTATGAGAGA, the TetR repression strength turned out to be 0.3.
In turn, TCCCGTGAAGTCATCGAGA gave a TetR repression strength of 0.165.
In the case of TCCCGATGAGTGGACGAGA, the TetR repression strength came out at 0.119.
Consider TCCCCACGAGTGGAAGAGA, for which the TetR repression strength stood at 0.251.
The same measure for TCCCGGTGAGTCGGGGAGA: 0.333.
The same measure for TCCCTATGAGTGAAGGAGA: 0.227; for TCCCTGTCAGTGCTTGAGA: 0.464.
On to TCCCGGGTAGTGCGTGAGA, for which the TetR repression strength was 0.12.
Under TCCCTGTCAGTGTCGGAGA stands 0.388.
The sequence TCCCGTATAGTGAAGGAGA displayed a TetR repression strength of 0.0428.
Sequence TCCCACTCAGTTTGGGAGA showed a TetR repression strength of 0.144.
The same measure for TCCCTGGCAGTGTGTGAGA: 0.164; for TCCCGTTCAGTTGGCGAGA: 0.398.
In turn, TCCCCTCTAGTCAGCGAGA gave a TetR repression strength of 0.278.
Take TCCCTCGTAGTTGACGAGA: the TetR repression strength worked out at 0.042.
TCCCTCGTAGTGTGTGAGA displayed a TetR repression strength of 0.478.
For the sequence TCCCCACAAGTGGTAGAGA, the TetR repression strength was found to be 0.117.
Turning to TCCCTTTTAGTTGATGAGA, the TetR repression strength was 0.261.
The sequence TCCCGAATAGTTAGGGAGA returned a TetR repression strength of 0.289.
As for TCCCCATGAGTGCCTGAGA, the TetR repression strength came out at 0.271.
In turn, TCCCTAGCAGTGGGGGAGA displayed a TetR repression strength of 0.119.
In the case of TCCCGAAGAGTACGAGAGA, the TetR repression strength is 0.448.
With TCCCTGTAAGTTTGTGAGA, the TetR repression strength amounted to 0.131.
Sequence TCCCTTAGAGTCGTTGAGA registered a TetR repression strength of 0.319.
Take TCCCTTCAAGTTTAAGAGA: the TetR repression strength was determined as 0.128.
Consider TCCCGGAGAGTAGTGGAGA, for which the TetR repression strength was 0.564.
Regarding TCCCGTTAAGTCCGGGAGA, the TetR repression strength is 0.0795.
The same measure for TCCCGACCAGTGGGTGAGA: 0.205; for TCCCAACGAGTTGATGAGA: 0.274; for TCCCGTCTAGTATGGGAGA: 0.253.
Under TCCCACGCAGTGCGAGAGA stands 0.341.
The same measure for TCCCGTTCAGTATAAGAGA: 0.319.
As to TCCCCCCGAGTGGCTGAGA, the TetR repression strength was found to be 0.289.
Sequence TCCCAGTTAGTCTGCGAGA displayed a TetR repression strength of 0.162.
For the sequence TCCCAGCGAGTGCCAGAGA, the TetR repression strength worked out at 0.233.
Regarding TCCCGGTCAGTGGTCGAGA, the TetR repression strength was 0.633.
As to TCCCAAGTAGTCCTCGAGA, the TetR repression strength is 0.396.
TCCCGCTAAGTAAGTGAGA registered a TetR repression strength of 0.00864.
Under TCCCACTCAGTACGCGAGA stands 0.36; under TCCCATCAAGTTTTGGAGA, 0.171.
In turn, TCCCGCGTAGTGGGCGAGA yielded a TetR repression strength of 0.232.
Consider TCCCGTTCAGTTGGAGAGA, for which the TetR repression strength is 0.361.
The sequence TCCCAATAAGTGAAAGAGA returned a TetR repression strength of 0.688.
The sequence TCCCGGCGAGTCGGGGAGA gave a TetR repression strength of 0.143.
The same measure for TCCCCCCTAGTGGTTGAGA: 0.
TCCCATCGAGTGGTGGAGA displayed a TetR repression strength of 0.204.
TCCCGGCTAGTGGAAGAGA returned a TetR repression strength of 0.404.
The same measure for TCCCGCTCAGTGAGTGAGA: 0.375.
The sequence TCCCAAGGAGTATAAGAGA gave a TetR repression strength of 0.288.
Under TCCCCAGGAGTAACGGAGA stands 0.158.
In turn, TCCCTATTAGTTATTGAGA gave a TetR repression strength of 0.444.
In turn, TCCCGTGCAGTGACCGAGA showed a TetR repression strength of 0.709.
Consider TCCCCGAGAGTGGTCGAGA, for which the TetR repression strength was found to be 0.332.
Consider TCCCCTCCAGTTGGTGAGA, for which the TetR repression strength is 0.0284.
The sequence TCCCGGACAGTTGAGGAGA displayed a TetR repression strength of 0.347.
TCCCAGAAAGTGGCGGAGA returned a TetR repression strength of 0.316.
For the sequence TCCCGTGGAGTGTGGGAGA, the TetR repression strength worked out at 0.272.
With TCCCGGCAAGTCGTGGAGA, the TetR repression strength was 0.402.
As for TCCCACTCAGTGTGGGAGA, the TetR repression strength is 0.44.
The sequence TCCCTAGGAGTGAGTGAGA returned a TetR repression strength of 0.342.
TCCCTACGAGTCGATGAGA showed a TetR repression strength of 0.219.
In turn, TCCCGGTAAGTTGGAGAGA displayed a TetR repression strength of 0.191.
In turn, TCCCCTCTAGTGACCGAGA registered a TetR repression strength of 0.399.
The same measure for TCCCGTCTAGTCGGCGAGA: 0.00715; for TCCCAAGGAGTGCGTGAGA: 0.349; for TCCCCGGGAGTGGGTGAGA: 0.121.
The same measure for TCCCTGAGAGTAGGGGAGA: 0.375; for TCCCAAAGAGTGAAGGAGA: 0; for TCCCGAACAGTGAGGGAGA: 0.0319.
Turning to TCCCGTCCAGTACGGGAGA, the TetR repression strength is 0.425.
The sequence TCCCGAATAGTTGAGGAGA displayed a TetR repression strength of 0.329.
On to TCCCAACGAGTTGGCGAGA, for which the TetR repression strength worked out at 0.176.
TCCCGTGCAGTAGTGGAGA showed a TetR repression strength of 0.0415.
TCCCTGCTAGTTACAGAGA showed a TetR repression strength of 0.348.
Take TCCCGCCGAGTGACGGAGA: the TetR repression strength amounted to 0.386.
As for TCCCGGTGAGTGACAGAGA, the TetR repression strength came out at 0.442.
In turn, TCCCCTTTAGTTGGCGAGA yielded a TetR repression strength of 0.364.
The same measure for TCCCCTGGAGTTGCCGAGA: 0.268.
Under TCCCCTGAAGTAGCGGAGA stands 0.15.
Regarding TCCCGGTGAGTCTGCGAGA, the TetR repression strength is 0.0299.
The sequence TCCCCCACAGTGGATGAGA came in with a TetR repression strength of 0.294.
With TCCCGCGGAGTTAGTGAGA, the TetR repression strength was 0.16.
The same measure for TCCCTCGGAGTGACGGAGA: 0.111; for TCCCATACAGTGCCGGAGA: 0.311; for TCCCCTAAAGTCCTTGAGA: 0.469.
In turn, TCCCCAAAAGTAAACGAGA gave a TetR repression strength of 0.578.
TCCCATTTAGTTTCCGAGA showed a TetR repression strength of 0.506.
In turn, TCCCTGGGAGTGTTCGAGA registered a TetR repression strength of 0.206.
In turn, TCCCGGCAAGTCAGGGAGA registered a TetR repression strength of 0.32.
As to TCCCAGAAAGTGGGTGAGA, the TetR repression strength was found to be 0.172.
TCCCAGCAAGTGACAGAGA registered a TetR repression strength of 0.223.
In the case of TCCCCTTTAGTCTGTGAGA, the TetR repression strength turned out to be 0.247.
TCCCACTCAGTCGTGGAGA had a TetR repression strength of 0.254.
TCCCGGCCAGTTGTTGAGA had a TetR repression strength of 0.199.
The sequence TCCCAGTAAGTGTACGAGA displayed a TetR repression strength of 0.405.
The same measure for TCCCGCACAGTCAACGAGA: 0.236; for TCCCACATAGTGGTAGAGA: 0.199; for TCCCTGATAGTTACCGAGA: 0.104.
With TCCCAATCAGTTCGAGAGA, the TetR repression strength stood at 0.198.
TCCCGAACAGTACTGGAGA returned a TetR repression strength of 0.317.
